The results in this text go back to PMC4336329 (PLoS ONE, 2015).

The whole screen tested about 310,000 compounds, of which about 2,200 (0.71%) showed an effect of 50% or more. The effect is printed as a negative number. Some of the results follow.

Sequence of human ether-à-go-go-related gene (hERG) potassium channel (Q12809 whole entry, looked up): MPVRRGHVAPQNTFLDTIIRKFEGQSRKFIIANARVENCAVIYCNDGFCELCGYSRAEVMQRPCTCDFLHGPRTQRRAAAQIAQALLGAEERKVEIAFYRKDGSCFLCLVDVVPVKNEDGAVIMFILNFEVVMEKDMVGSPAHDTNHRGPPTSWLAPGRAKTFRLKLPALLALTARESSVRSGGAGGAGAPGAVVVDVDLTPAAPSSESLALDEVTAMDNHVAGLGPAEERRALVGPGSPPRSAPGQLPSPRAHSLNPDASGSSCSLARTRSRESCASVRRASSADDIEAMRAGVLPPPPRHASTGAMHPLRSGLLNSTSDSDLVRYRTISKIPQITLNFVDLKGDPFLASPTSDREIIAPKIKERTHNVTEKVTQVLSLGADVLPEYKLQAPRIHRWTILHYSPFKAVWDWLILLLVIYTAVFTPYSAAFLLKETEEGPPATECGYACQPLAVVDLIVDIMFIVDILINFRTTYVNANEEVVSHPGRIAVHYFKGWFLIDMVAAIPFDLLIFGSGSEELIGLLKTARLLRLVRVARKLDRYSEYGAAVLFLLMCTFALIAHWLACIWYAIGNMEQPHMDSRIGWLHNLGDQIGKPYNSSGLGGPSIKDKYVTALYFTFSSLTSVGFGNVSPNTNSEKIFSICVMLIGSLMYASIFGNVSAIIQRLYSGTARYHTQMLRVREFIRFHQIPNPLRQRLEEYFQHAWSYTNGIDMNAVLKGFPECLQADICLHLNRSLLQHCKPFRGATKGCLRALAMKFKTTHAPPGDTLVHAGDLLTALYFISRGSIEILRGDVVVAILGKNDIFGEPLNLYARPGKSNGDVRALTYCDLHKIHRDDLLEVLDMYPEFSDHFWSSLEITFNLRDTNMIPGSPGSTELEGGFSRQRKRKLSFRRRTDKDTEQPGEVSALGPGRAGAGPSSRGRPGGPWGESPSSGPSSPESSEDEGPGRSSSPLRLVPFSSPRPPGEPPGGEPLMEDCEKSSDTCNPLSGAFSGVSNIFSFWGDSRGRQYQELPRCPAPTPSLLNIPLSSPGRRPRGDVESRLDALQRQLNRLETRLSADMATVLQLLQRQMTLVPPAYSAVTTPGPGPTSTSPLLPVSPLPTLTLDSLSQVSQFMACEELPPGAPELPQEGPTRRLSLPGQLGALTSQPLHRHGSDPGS

This experiment concerns the target human ether-à-go-go-related gene (hERG) potassium channel (human, UniProt Q12809). Kind of experiment: primary screen, population patch clamp on CHO cells stably expressing hERG.
On to `Cc1ccc(C(=O)O)cc1NC(=S)NC(=O)c1ccc([N+](=O)[O-])c(C)c1`, for which the “hERG current change (%, negative = inhibition) at 1uM” value worked out at 7.54%. For `OCCC1CN(Cc2cnc(N3CCCC3)s2)CCN1C1CCCC1` (centres unmarked), the “hERG current change (%, negative = inhibition) at 1uM” value was found to be 6.87%. Turning to `CCCNc1c(NC(=O)C2CCC(C)CC2)c(=O)oc2ccccc12` (centres unmarked), the “hERG current change (%, negative = inhibition) at 1uM” value turned out to be 10.6%. In the case of `CCOc1ccc(CNC(=O)CCSCc2ccccc2F)cc1OC`, the “hERG current change (%, negative = inhibition) at 1uM” value is 14.1%.

As to `Cc1ccc(S(=O)(=O)CCC(=O)OC(C)C(=O)c2c(C)[nH]c3ccccc23)cc1` (centres unmarked), the “hERG current change (%, negative = inhibition) at 1uM” value is 12.8%. As for `CN(CC(=O)Nc1ccc(S(=O)(=O)N2CCCC2)cc1)Cc1c(F)cccc1Cl`, the figure is 6.9%; as for `c1ccc(CCOn2ccnc2)cc1`, 14.7%. For `O=C(NC1CC2CCCC(C1)N2C(=O)NCc1ccccc1)C1CC1` (centres unmarked), the “hERG current change (%, negative = inhibition) at 1uM” value was -15.4%. As for `O=C(Nc1ccc(NC(=O)c2cccs2)cc1)c1cccnc1`, the figure is 13.4%; as for `Cc1[nH]cnc1C(=O)N/N=C/c1c(Cl)cccc1Cl`, 17.6%; as for `Cc1noc(C)c1C(=O)N1CCN(c2cccc(Cl)c2)CC1`, 6.48%.

In the case of `CCN(CC)c1ccc(/C=C2\C(=O)NC(=O)N(Cc3ccco3)C2=O)cc1`, the “hERG current change (%, negative = inhibition) at 1uM” value came out at 0.975%.

With `O=C(NCCOc1ccccc1)C(c1ccccc1)c1ccccc1`, the “hERG current change (%, negative = inhibition) at 1uM” value is 7.36%.

Regarding `Cc1ccc(-n2cc(CNCCc3ncc(C)[nH]3)c(-c3ccc(F)cc3)n2)cc1`, the “hERG current change (%, negative = inhibition) at 1uM” value is listed as -5.51%. As for `N#Cc1c(NC(=S)NC(=O)c2ccccc2)sc2c1CCCC2`, the figure is 12.6%. Consider `CCOC(=O)C1=C(C)N=c2s/c(=C/c3ccc(OCC(=O)O)cc3)c(=O)n2C1c1ccc(SC)cc1` (centres unmarked), for which the “hERG current change (%, negative = inhibition) at 1uM” value is given as 13.8%. Consider `COc1ccc(C(=O)NCc2ccc(N3CCN(C(=O)OC(C)(C)C)CC3)cc2)cc1`, for which the “hERG current change (%, negative = inhibition) at 1uM” value was -5.88%.

As to `Cc1ccc(NC(=O)CSc2nnc(CN3CCOCC3)n2C)cc1C`, the “hERG current change (%, negative = inhibition) at 1uM” value is 14.1%. For the compound `COc1nn(C(C)C(=O)N2N=C(C(F)F)CC2(O)C(F)F)cc1[N+](=O)[O-]` (centres unmarked), the “hERG current change (%, negative = inhibition) at 1uM” value stood at 4.03%.

Consider `COc1ccc(NC(=O)NC23CC4(C)CC(C)(CC(C)(C4)C2)C3)cc1`, for which the “hERG current change (%, negative = inhibition) at 1uM” value is -8.8%. Regarding `CC1=C(C(=O)N(C)Cc2ccccc2)C2(CCC(C)CC2)OC1=O` (centres unmarked), the “hERG current change (%, negative = inhibition) at 1uM” value is 2.6%. For the compound `Cc1cc(NO)c(C(C)C)cc1N=O`, the “hERG current change (%, negative = inhibition) at 1uM” value is recorded as 1.6%. As for `COCCn1c(SCC(=O)Nc2ccc(C(C)=O)cc2)nnc1-c1ccco1`, the figure is 1.12%. For the compound `COc1ccc(Cc2nnc(NC(C)=O)s2)cc1`, the “hERG current change (%, negative = inhibition) at 1uM” value is reported as 8.54%.

In the case of `COc1ccc(NC(=O)c2cc3c(=O)n(C)c4ccccc4c3n2C)cc1Cl`, the “hERG current change (%, negative = inhibition) at 1uM” value is on record as 14.4%. To `CC(C)(C)OC(=O)CC[C@@H](C(=O)N1CCN(C(=O)OC(C)(C)C)CC1)n1cc(C(Cc2ccc(O)cc2)NC(=O)OC(C)(C)C)nn1` (some centres unmarked) belongs 14.1%; to `COc1cccc2c1cc1c(=O)n(CC(=O)NC3CCCCC3)nc(C)n12`, 16%; to `COc1ccccc1NC(=O)C(C)OC(=O)Cn1cnc2c1c(=O)n(C)c(=O)n2C` (centres unmarked), 9.52%. For `CCCCC[C@H](O)/C=C/C1=C(CCCCCCC(=O)O)C(=O)CC1`, the “hERG current change (%, negative = inhibition) at 1uM” value is on record as 12.7%.

For `CC(=O)NCc1ccc(S(=O)(=O)N2CCCN(C)CC2)cc1.Cl`, the “hERG current change (%, negative = inhibition) at 1uM” value stood at 14.1%.

Take `CC1SCC(=NOCc2ccccc2)CS1` (centres unmarked): the “hERG current change (%, negative = inhibition) at 1uM” value is given as 7.37%. Take `NC(=O)C1CCN(S(=O)(=O)c2cc3c4c(c2)CCN4C(=O)CC3)CC1`: the “hERG current change (%, negative = inhibition) at 1uM” value is listed as 8.51%. In the case of `COc1ccc(O)c(CN2CCCC(N3CCc4ccccc4C3)C2)c1` (centres unmarked), the “hERG current change (%, negative = inhibition) at 1uM” value is given as -1.28%. Take `COCCC1CCCCN1C(=O)c1cc(COc2cccc(C(C)=O)c2)on1` (centres unmarked): the “hERG current change (%, negative = inhibition) at 1uM” value was found to be 8.15%. Take `CC1CN(C(=S)Nc2ccccc2)N(c2ccccc2)C1` (centres unmarked): the “hERG current change (%, negative = inhibition) at 1uM” value came to 9.48%. Consider `CCOC(=O)c1nc(NNC(C)=O)sc1C`, for which the “hERG current change (%, negative = inhibition) at 1uM” value is listed as 6.85%. As for `CCOC(=O)CCC(=O)Nc1cccc([N+](=O)[O-])c1`, the figure is 12.9%; as for `C/C(=N\Nc1ccc([N+](=O)[O-])cc1)c1cccc(N)c1`, -1.76%. Consider `O=C(CCc1cn2ccccc2n1)NC1CCCc2c1cnn2-c1ccccc1F` (centres unmarked), for which the “hERG current change (%, negative = inhibition) at 1uM” value was 11.8%. To `CCc1ccc(OCC(=O)NC(=S)Nc2ccc(C)cc2C)c(Br)c1` belongs 10.5%; to `CC(C)n1nc(C(=O)OCC(=O)N(C)C2CCS(=O)(=O)C2)c2ccccc2c1=O` (centres unmarked), 8.79%; to `Cl.Cn1nnc(C(O)CNCc2cccs2)n1` (centres unmarked), 15%. Turning to `Cc1ccnc(NS(=O)(=O)c2ccc(NC(=O)CC(C)c3ccccc3)cc2)n1` (centres unmarked), the “hERG current change (%, negative = inhibition) at 1uM” value stood at 14.7%. As for `CC(=O)c1cccc(NC(=O)Nc2cc3sccc3n2C)c1`, the figure is 5.14%; as for `OCCOCCOCCn1c2ccccc2c2ccccc21`, 9.35%. For `O=C(Nc1ccc(OCc2ccccc2)cc1)c1cccs1`, the “hERG current change (%, negative = inhibition) at 1uM” value is on record as 14.3%. `CSc1nc2sc3c(c2c(=O)[nH]1)CCC3`: the “hERG current change (%, negative = inhibition) at 1uM” value stood at 14.2%. To `Cc1ccc(C(C(=O)NC2CCCC2)N(C(=O)c2csnn2)C2CC2)cc1` (centres unmarked) belongs 5.27%; to `Cc1cc(C(=O)CSc2nnc(-c3ccccc3)n2C)c(C)n1C`, -5.02%; to `O=C(O)COCC(=O)Nc1ccc(-n2cnnn2)cc1`, 14.7%.

`Cc1cc(C)c(OCCOCCN2CCCC2)c(C)c1`: the “hERG current change (%, negative = inhibition) at 1uM” value is given as 0.544%. For the compound `CCOC(=O)c1ccc(NC(=O)Nc2ncccc2C)cc1`, the “hERG current change (%, negative = inhibition) at 1uM” value is 7.91%. Turning to `COc1ccc(C(=O)NNC(=O)CN2CCC(n3nnc4cc(C)ccc43)CC2)cc1`, the “hERG current change (%, negative = inhibition) at 1uM” value worked out at 5.47%. For `Cc1no[n+]([O-])c1COc1ccc(/C=C(\C#N)C(N)=O)cc1`, the “hERG current change (%, negative = inhibition) at 1uM” value is recorded as 8.41%. To `O=[N+]([O-])c1cccnc1Oc1ccc(C2SCCS2)cc1` belongs 11.9%. For `CC(c1ccccc1)C(CC(=O)O)C(=O)NC1CCCCC1` (centres unmarked), the “hERG current change (%, negative = inhibition) at 1uM” value is given as 17.2%. As for `CCOC(=O)c1c(C)sc2c1N(C(=O)CN(CC)CC)c1cc(Cl)ccc1S2`, the figure is 12.6%. To `Cc1ccc(C)c(NC(=O)c2oc(=O)c3ccccc3c2-c2ccccc2)c1` belongs 1.81%; to `C=CCn1c(CCNC(=O)c2cccs2)n[nH]c1=S`, 1.38%; to `O=C(NCc1ccco1)c1ccc2c(c1)N(Cc1ccccc1)C(=O)CS2=O` (centres unmarked), 12.5%. Regarding `CCCc1ccc(OC(=O)c2ccc(O)cc2Cl)cc1`, the “hERG current change (%, negative = inhibition) at 1uM” value was 8.84%. As to `Cc1ccc(S(=O)(=O)Nc2nc3ccccc3nc2NCC2CCCO2)cc1` (centres unmarked), the “hERG current change (%, negative = inhibition) at 1uM” value worked out at 11.8%.

`NC(=O)c1ccc(NC(=O)CCc2nc3sc4c(c3c(=O)[nH]2)CCCC4)cc1`: the “hERG current change (%, negative = inhibition) at 1uM” value was 5.28%. Regarding `Cc1ccc(C)c(N(C(=O)c2ccco2)C(C(=O)NC2CCCC2)c2ccco2)c1` (centres unmarked), the “hERG current change (%, negative = inhibition) at 1uM” value is given as 4.24%.

For `COCCN(CCOC)C(=O)CC(=O)N(CCOC)CCOC`, the “hERG current change (%, negative = inhibition) at 1uM” value came to 14.7%. Take `COc1ccccc1CNC(=O)CSc1nnc2c(n1)[nH]c1ccc(F)cc12`: the “hERG current change (%, negative = inhibition) at 1uM” value is listed as -3.03%. Turning to `COCCNC(=O)c1c(N)n(/N=C/c2cccs2)c2nc3ccccc3nc12`, the “hERG current change (%, negative = inhibition) at 1uM” value is 3.37%. For the compound `O=C(CNC(=O)c1ccco1)OCN1C(=O)c2ccccc2C1=O`, the “hERG current change (%, negative = inhibition) at 1uM” value is reported as 14.3%. To `CCCOc1ccc(C2C(C(=O)c3cc4ccccc4o3)=C(O)C(=O)N2c2cc(C)on2)cc1OC` (centres unmarked) belongs 18.7%; to `CN(C)S(=O)(=O)c1ccc(NC(=O)N2CCN(c3ccccc3Cl)CC2)cc1`, 11.7%. To `CCOC(=O)c1sc(-c2ccc(F)cc2)cc1N` belongs 8.96%. As for `Fc1ccccc1-c1ccc(/C=N/Nc2nc3ccccc3[nH]2)o1`, the “hERG current change (%, negative = inhibition) at 1uM” value stood at 12.2%. For `NS(=O)(=O)c1ccc(CCNC(=O)COC(=O)Cc2c(F)cccc2Cl)cc1`, the “hERG current change (%, negative = inhibition) at 1uM” value is 11.8%.

On to `Cc1ccc(OCC(=O)N/N=C2\CC(=O)CC(C)(C)C2)c(Br)c1`, for which the “hERG current change (%, negative = inhibition) at 1uM” value was determined as 9.05%. To `COC(=O)NCC(c1ccco1)N1CCN(c2ccc(OC)cc2)CC1` (centres unmarked) belongs 9.27%. `COC(=O)Cn1cnc2c(C#N)c3n(c2c1=O)CCCCC3`: the “hERG current change (%, negative = inhibition) at 1uM” value was determined as 0.865%. As for `COc1ccccc1/C=N/NC(=O)c1ccc(=O)n(C)c1`, the figure is 12.3%. Take `O=C(CCC(=O)Nc1nnc(C2CCCCC2)s1)NCC1CCCO1` (centres unmarked): the “hERG current change (%, negative = inhibition) at 1uM” value was found to be 16.2%. As for `O=C(CSc1nnc(-c2n[nH]c3ccccc23)n1-c1ccccc1)Nc1cccc(Cl)c1`, the “hERG current change (%, negative = inhibition) at 1uM” value came out at 0.634%. To `NC(=O)CC(NC(=O)c1ccccc1)c1ccc(NC2CCCCCCC2)c([N+](=O)[O-])c1` (centres unmarked) belongs 7.77%; to `Cc1ccc(-n2c(-c3nn(C)cc3Cl)n[nH]c2=S)cc1`, 14.8%. Consider `Cc1cccc(N=C2NC(=O)/C(=C/c3cccnc3)S2)c1C`, for which the “hERG current change (%, negative = inhibition) at 1uM” value was found to be 13%. Take `O=C(CN(C(=O)c1csnn1)c1ccccc1)NCc1ccc2c(c1)OCO2`: the “hERG current change (%, negative = inhibition) at 1uM” value was -6.32%. Regarding `Cc1nn(Cc2ccc(Cl)c(Cl)c2)c(C)c1NC(=O)c1cn(-c2ccccc2)nc1-c1ccccc1`, the “hERG current change (%, negative = inhibition) at 1uM” value was determined as 9.66%.

With `COc1ccc(NC(=O)c2ccc(NC(=O)CSc3nc(N)cc(=O)[nH]3)cc2)cc1`, the “hERG current change (%, negative = inhibition) at 1uM” value worked out at 10.3%. In the case of `CCN(c1ccccc1)S(=O)(=O)c1ccc(C(=O)NCCCn2ccnc2)cc1`, the “hERG current change (%, negative = inhibition) at 1uM” value was 8.42%.

As for `CCCCN(CC)CCCNC(=O)Cn1nc(Cc2ccncc2)c2ccccc2c1=O`, the “hERG current change (%, negative = inhibition) at 1uM” value is -5.25%.

Take `COc1ccc(NC(=O)CN(C)C(=O)CCCNC(=O)c2ccc(Cl)cc2)cc1`: the “hERG current change (%, negative = inhibition) at 1uM” value is -5.16%. On to `C/C(=N\NS(=O)(=O)c1ccc(C)c([N+](=O)[O-])c1)c1cccs1`, for which the “hERG current change (%, negative = inhibition) at 1uM” value worked out at 15%.
